Data from PMC12136788.
The other results are listed elsewhere or left out.

T1: UNK ZnF1-3 (human, UniProt Q9C0B0 31-174)
T1 sequence: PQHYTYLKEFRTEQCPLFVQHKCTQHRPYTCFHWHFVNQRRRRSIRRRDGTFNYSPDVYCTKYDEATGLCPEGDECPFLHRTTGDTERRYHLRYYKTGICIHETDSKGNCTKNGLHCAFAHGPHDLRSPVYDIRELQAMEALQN

B1: 130225066_130225186_396_CDS_ENSMUSG00000028580_ENSMUST00000105991|mouse|control|control (ssRNA)
RNA: GGGAGUUCUACAGUCCGACGAUCUGUAGGCCAUCGAUGUUUGCUAGUAUUAUAGCCGCCUCCACCACUUCCUCCUCCCCCAAGCUGCUCACCAUGCUGCCUCUGAAAGAAGUAGUCCACCAUAGCGUCGUCCUGGGAACGGCCCAACAGAGGAUUGAGCAUCA
B2: chr6:114281168:114281169:-_ENSG00000196591_ENST00000368632|hu_hu|hu_hu_hu_mus_True|38_98 (ssRNA)
RNA: GGGAGUUCUACAGUCCGACGAUCUUCCAUUUUUCGGUAUAAGCCAUAAUUUAGCAGCAAGUUAUGAGUCAUCCGGAUUCUAUGAGGCUUCAUGGGAUGACCCUGUCCAUAAUAAUAAUUGCCAAUAUCACCAUCAUAGUAGUACAACAGAGGAUUGAGCAUCA
B3: chr14:102036314:102036315:-_ENSMUSG00000075486_ENSMUST00000100339|mus_hu|motif|central (ssRNA)
RNA: GGGAGUUCUACAGUCCGACGAUCCUUAAGAGAUCUGCAAGUGUCUGAGCUCACAGCCAUACCCAGUUUCCACUGAAAAUCGGCAAGCUGGUUGGUGACAUCGGACUUAGCAUCCAGCGGCGGCUCGCUGGACGCCUCCAUGGGCAACAGAGGAUUGAGCAUCA
B4: chr2:166753246:166753247:+_ENSMUSG00000002718_ENSMUST00000002790|mus_hu|FALSE|FALSE (ssRNA)
RNA: GGGAGUUCUACAGUCCGACGAUCAAAUAGAUUCUUAUAAUGAGGUCUCUCACAAACUGAAGCCAGAAAUUGAAUUGCAUUACUUACCAACAAAUCAUAUUUAACCUCUUGACCCGUUGUAACUAGUAAAUUCCAGAUGGCUGUCAACAGAGGAUUGAGCAUCA
B5: chr11:77336104:77336105:-_ENSG00000074201_ENST00000525064|hu_mus|hu_hu_hu_mus_False|1_18 (ssRNA)
RNA: GGGAGUUCUACAGUCCGACGAUCCUCACACAUUGCUGUGAACAUCGCCUCCAAUGCUGACUUAUCACUGGGCACAAAUCGAAAUUCAGAAAUGGGUUCAACAUCAUCAUUGUCUUCUUCCUCUUCUUCAGAGAGAGCAGGUUCCAACAGAGGAUUGAGCAUCA
B6: 90420490_90421851_7730_CDS_ENSG00000112159_ENST00000369393|human|control|control (ssRNA)
RNA: GGGAGUUCUACAGUCCGACGAUCUUCCAAAUGAAUUUGUAUGGACUCAAGCCCCUGCGGUAUAUUCUUGGCUAAAUGAUAAAGCCAUUUAACUCUGAGCAUCCAAUCCUGAUUGGUUGCUCUUUCUAUGAGCAAUUUAACAGCCAACAGAGGAUUGAGCAUCA
B7: chr9:95363179:95363180:-_ENSMUSG00000032407_ENSMUST00000079659|mus_hu|FALSE|FALSE (ssRNA)
RNA: GGGAGUUCUACAGUCCGACGAUCUGAUCGCCUAGACCUUUUAGGUGUCCUUGAACCAGAUGGUGAUCUUUUGGCUUUUUUGCUAACAUCUCUAGGAGAAUCUUUGUGAGAUGACCUGGACCGUGAGCUCUCUUUAUGAGAUCUCAACAGAGGAUUGAGCAUCA
B8: chr18:80415450:80415451:+_ENSMUSG00000057130_ENSMUST00000145963|mus_hu|FALSE|FALSE (ssRNA)
RNA: GGGAGUUCUACAGUCCGACGAUCUACAUUUUGUUGAAGUCAGGCACUUCUGUAAUAUCCACAAGAUAAAUAACUGCAAAAUUUUUAACGCCUCUUUCCAGUGGCUCCAGCCUCCAGUGGUGGGUAUCCUCCUUCCAAGGUCAGCAACAGAGGAUUGAGCAUCA
B9: 45676174_45677357_897_CDS_ENSMUSG00000042790_ENSMUST00000161187|mouse|control|control (ssRNA)
RNA: GGGAGUUCUACAGUCCGACGAUCAAAUACUUGAAGCAUGAAAUCUGCCUCUGAGGGUGGUGGAGGCAAAGUUGGGGUAGGGAUCUGAGGAAGGCUGCUCAGCUUGGCUCCAUUCCUCACUAGCUGGAUAUGACUAUUAAACUGCAACAGAGGAUUGAGCAUCA
B10: chr5:21408736:21408737:-_ENSMUSG00000042453_ENSMUST00000161356|mus_hu|mus_mus_mus_hu_False|8_108 (ssRNA)
RNA: GGGAGUUCUACAGUCCGACGAUCGUUGACAGCAUUAUAGAUGGUGGCUUCAUGGAACUGGAAAGGGGAGCAGCCAAUGCUGUUAGAAGAGGAAGGAAGGCACUGGGUCUGUACGAGCUGCCAGGAAUCGGACCUUGCAUCCUUCAACAGAGGAUUGAGCAUCA
B11: chr1:109605286:109605287:-_ENSG00000197780_ENST00000461096|hu_mus|hu_hu_hu_mus_True|18_18 (ssRNA)
RNA: GGGAGUUCUACAGUCCGACGAUCAAGUUUCAGAGUAACAUUCAGUAACCUCUUUAAAUGCAAUUAUCCUUAUUAUAAGCUAAGCAGAAUAAUAAUUUAAUACCGUAAGUGAACUACCACAAAACCUUGAACCGCGAAAAUGGUCAACAGAGGAUUGAGCAUCA
B12: chr10:1038518:1038519:+_ENSG00000107937_ENST00000545048|hu_hu|hu_hu_hu_mus_False|48_108 (ssRNA)
RNA: GGGAGUUCUACAGUCCGACGAUCCAGUCUAUCAUGGUAAUUCUGUUGAGUAAAUUUGACUUUUCUCAUAUAAAAAUGUCGAAUCCGAUGUAUUUGGUAAUGUUUAUGAAUAACCGUUGGAGUCUUUCGUUGAGUCUUGGAUAACAACAGAGGAUUGAGCAUCA
B13: chr13:104551264:104551265:-_ENSMUSG00000032621_ENSMUST00000074616|mus_mus|FALSE|FALSE (ssRNA)
RNA: GGGAGUUCUACAGUCCGACGAUCUCCAAGUGUUGUAAUAUUUGGGUCCAGCGCUGCUGCUGGGAUAGCUCCCAAACUGCUAAGUGAAACACCAAGACUACUCACUGCCGUCAGAGGACUGGAGGUUGGGAUGGGAAGCAACCCCAACAGAGGAUUGAGCAUCA
B14: chrX:71549762:71549763:+_ENSMUSG00000019087_ENSMUST00000019231|mus_mus|mus_mus_mus_hu_False|78_88 (ssRNA)
RNA: GGGAGUUCUACAGUCCGACGAUCAAACCCGUGUACUUCUUAUUGUUACAUCACCCCUCCCCCCCAACGAUAACGACAGCCAAGCAGGACAGACAGUUAAGUAGUACUUCCACACUCCCAAACUCAGGGAGCCCUAUAACCUUACAACAGAGGAUUGAGCAUCA

These binders were tested against T1, UNK ZnF1-3 (assay: nsRBNS (natural sequence RNA bind-n-seq); RBNS binding buffer (assumed for nsRBNS): 25 mM Tris pH 7.5, 150 mM KCl, 3 mM MgCl2, 0.01% Triton X-100, 500 ug/ml BSA, 20 U/ml SUPERase-In, 4 C; UNK is unkempt and MSI1 is Musashi-1; names of the RNAs are library labels; protein concentration not given here; high values mean tight binding).

Row | Binder | binding signal
1 | B1 | 0.883 enrichment R
2 | B2 | 0.946 enrichment R
3 | B3 | 0.706 enrichment R
4 | B4 | 1.31 enrichment R
5 | B5 | 0.97 enrichment R
6 | B6 | 0.738 enrichment R
7 | B7 | 0.388 enrichment R
8 | B8 | 1.15 enrichment R
9 | B9 | 0.819 enrichment R
10 | B10 | 1.81 enrichment R
11 | B11 | 0.713 enrichment R
12 | B12 | 0.543 enrichment R
13 | B13 | 1.28 enrichment R
14 | B14 | 1.83 enrichment R
